{"source": "PubChem BioAssay AID463173", "about": "(ICCB-Longwood Screening Facility, Harvard Medical School, 2010)", "note": "The whole screen tested about 52,000 compounds, of which about 1,700 (3.3%) were called active. Rule as the data show it: active = survival mostly below about 52% (no sharp cut-off); inactive = mostly above about 56%. This is one part of the list."}
{"test_system": "Wild type", "test": "growth inhibition of S. aureus wild type versus tarO mutant, primary screen, teichoic acid synthesis inhibitors, RN4220, OD600 (AID 463173)", "conditions": "S. aureus RN4220 wild type/DeltatarO growth, OD600, 18 h, hits give low values, screened at 18.75 µg/mL (by protocol)"}
{"smiles": "Cc1ccc(OCC(=O)Nc2cccc(-c3nc4ccccc4s3)c2)cc1", "survival": "inactive: 55%"}
{"smiles": "C=C(C)Cn1c(CO)nc2ccccc21", "survival": "inactive: 92%"}
{"smiles": "COc1cccc(CNC(=O)c2sc3nc(C)cc(C)c3c2-n2cccc2)c1OC", "survival": "inactive: 93%"}
{"smiles": "CCOC(=O)c1ccc(NC(=O)C2CCCN(c3ncnc4onc(-c5ccc(F)cc5)c34)C2)cc1", "note": "(stereo unspecified)", "survival": "inactive: 67%"}
{"smiles": "CCOc1ccc(NC(=O)C2CC(=O)NC(=Nc3ccc(Cl)c(Cl)c3)S2)cc1", "note": "(stereo unspecified)", "survival": "inactive: 78%"}
{"smiles": "Cc1c(C(=O)NCc2ccccc2)sc2nc3n(c(=O)c12)CCCCC3", "survival": "inactive: 79%"}
{"smiles": "COC(=O)c1sccc1S(=O)(=O)N1CCN(c2cc(Cl)ccc2C)CC1", "survival": "inactive: 51%"}
{"smiles": "COC(=O)C(Cc1c[nH]c2ccccc12)NC(=O)COc1cccc(C)c1", "note": "(stereo unspecified)", "survival": "inactive: 88%"}
{"smiles": "Cc1ccc(Cl)cc1N1CCN(C(=O)c2ccc(NC(=O)c3nsc4ccccc34)cc2)CC1", "survival": "active: 1%"}
{"smiles": "CCOC(=O)COc1ccc(CC)cc1C(=O)c1ccn2nc(-c3ccccc3)cc2n1", "survival": "inactive: 68%"}
{"smiles": "Cc1ccc(NC(=O)c2oc3ccc(S(=O)(=O)N4CCC5(CC4)OCCO5)cc3c2C)cc1C", "survival": "inactive: 124%"}
{"smiles": "Cc1ccc(-c2n[nH]c3c2C(c2ccc(C(C)(C)C)cc2)NC3=O)cc1", "note": "(stereo unspecified)", "survival": "inactive: 125%"}
{"smiles": "Cc1nn(S(=O)(=O)c2ccc(C(C)(C)C)cc2)c(C)c1S(=O)(=O)N1CCCCCC1", "survival": "inactive: 59%"}
{"smiles": "COCCNC(=O)CCn1c(=O)c2cc(OC)c(OC)cc2n(CC(=O)Nc2ccc(Cl)cc2F)c1=O", "survival": "inactive: 72%"}
{"smiles": "CCC1CN(C(=O)N2CCC(C(=O)NCc3ccc(N(C)C)cc3)CC2)c2ccccc2O1", "note": "(stereo unspecified)", "survival": "inactive: 105%"}
{"smiles": "Cc1cccc(-c2cc3nc(-c4ccccc4)cc(=O)n3[nH]2)c1", "survival": "inactive: 93%"}
{"smiles": "CCOC(=O)c1ccc(N2CCN(c3cc(C)ccc3C)CC2)c(NC(=O)Nc2ccc(CC)cc2)c1", "survival": "inactive: 63%"}
{"smiles": "CCCCC(=O)NCc1nc2cccnc2n1Cc1ccc(OC)cc1", "survival": "inactive: 76%"}
{"smiles": "COc1cccc(Nc2ccc3cc(S(=O)(=O)N4CCC(C)CC4)ccc3n2)c1", "survival": "inactive: 63%"}
{"smiles": "Cc1cn2c(=O)cc(COC(=O)c3cccc(NC(=O)c4ccc(C(C)(C)C)cc4)c3)nc2s1", "survival": "inactive: 101%"}
{"smiles": "CCn1cc2nc(SCC(=O)Nc3ccc(OC)c(OC)c3)n(Cc3ccc(Cl)cc3)c(=O)c2n1", "survival": "inactive: 57%"}
{"smiles": "CC(=O)c1cccc(NC(=O)C2CCN(C(=O)c3cnn(-c4ccccc4)c3-n3cccc3)CC2)c1", "survival": "inactive: 128%"}
{"smiles": "Cc1c(C(=O)NCc2ccccc2Cl)sc2nc3n(c(=O)c12)CCCCC3", "survival": "inactive: 104%"}
{"smiles": "Cc1ccccc1-c1nc2scc(CCNS(=O)(=O)c3ccccc3)n2n1", "survival": "inactive: 81%"}
{"smiles": "Cc1nn2c(=O)cc(COC(=O)c3cccc(NC(=O)CCc4ccccc4)c3)nc2s1", "survival": "inactive: 71%"}
{"smiles": "COc1ccc(-c2cc(-c3ccc(F)cc3)nc3c2COc2ccc(F)cc2-3)cc1", "survival": "inactive: 68%"}
{"smiles": "CCOc1ccc(-n2c(/C=C/c3cccc(F)c3)nc3cc(OC)c(OC)cc3c2=O)cc1", "survival": "inactive: 102%"}
{"smiles": "COc1ccc(-c2oc3ncn4nc(-c5ccccc5O)nc4c3c2-c2ccc(OC)cc2)cc1", "survival": "inactive: 67%"}
{"smiles": "O=C(NCc1ccccc1)C1CCCN(S(=O)(=O)c2cccc3nsnc23)C1", "note": "(stereo unspecified)", "survival": "inactive: 96%"}
{"smiles": "CC(C)(C)OC(=O)N1CCC(c2c(C(=O)Nc3ccc4c(c3)OCCO4)cnn2-c2ccc(Cl)cc2)CC1", "survival": "inactive: 112%"}
{"smiles": "O=C1CN(C(=O)COc2ccc(Cl)cc2)C(c2ccccc2)c2cc(Br)ccc2N1", "note": "(stereo unspecified)", "survival": "inactive: 72%"}
{"smiles": "CCOc1ccc(NC(=O)CN2C(=O)CC(C)Sc3ccccc32)cc1", "note": "(stereo unspecified)", "survival": "inactive: 86%"}
{"smiles": "COc1ccc(CCNC(=O)C(CC(C)C)N2Cc3ccccc3C2=O)c(OC)c1OC", "note": "(stereo unspecified)", "survival": "inactive: 78%"}
{"smiles": "CCn1cc(CCC(=O)NCc2ccc(C)cc2)c2ccccc21", "survival": "inactive: 83%"}
{"smiles": "Cc1cc(C)nc(NC(=O)COc2ccc(Br)cc2)n1", "survival": "inactive: 105%"}
{"smiles": "Cc1ccc2c(c1)C(Cc1ccccc1F)C(=O)N2", "note": "(stereo unspecified)", "survival": "inactive: 105%"}
{"smiles": "Cc1cccc(C(=O)Nc2cc(-c3nc4cccnc4s3)ccc2C)c1", "survival": "inactive: 86%"}
{"smiles": "S=C(NCCCN1CCOCC1)Nc1ccccc1", "survival": "inactive: 114%"}
{"smiles": "COc1ccc(C)cc1NC(=O)C1CCN(S(=O)(=O)c2ccc3[nH]c(=O)oc3c2)CC1", "survival": "inactive: 59%"}
{"smiles": "CC(C)Oc1ccccc1C1C=C(C(=O)O)Nc2ncnn21", "note": "(stereo unspecified)", "survival": "inactive: 126%"}
{"smiles": "COc1ccc(CCn2c3c(c(=O)[nH]c2=O)C(NC(=O)c2ccccc2F)(C(F)(F)F)C(=O)N3)cc1OC", "note": "(stereo unspecified)", "survival": "inactive: 77%"}
{"smiles": "COc1cc2c(=O)n(Cc3ccccc3Cl)c(=O)n(CC(=O)Nc3ccc(C)c(C)c3)c2cc1OC", "survival": "inactive: 72%"}
{"smiles": "COc1ccc(CCCc2nnc(SCC(=O)Nc3cccc(C)c3)o2)cc1", "survival": "inactive: 84%"}
{"smiles": "Cc1nn(CCC(=O)NCc2ccc(Cl)cc2)c(=O)c2nn(-c3ccccc3)c(C)c12", "survival": "active: -3%"}
{"smiles": "COc1ccc(NC(=O)CSc2nc3ccccc3n2CC(=O)N2CCCCC2C)cc1", "note": "(stereo unspecified)", "survival": "inactive: 72%"}
{"smiles": "COc1ccc(-c2onc(C)c2C)cc1S(=O)(=O)NCc1ccc(C)o1", "survival": "inactive: 67%"}
{"smiles": "CCOC(=O)c1ccc(-c2ccc(/C=C(\\C#N)c3nc4ccc(C)cc4[nH]3)o2)cc1", "survival": "inactive: 62%"}
{"smiles": "COCC(C)NC(=O)c1cc2c(=O)n3cccc(C)c3nc2s1", "note": "(stereo unspecified)", "survival": "inactive: 89%"}
{"smiles": "Cc1c(Cl)cccc1NC(=O)CC(c1ccc(F)cc1)N1Cc2ccccc2C1=O", "note": "(stereo unspecified)", "survival": "active: 10%"}
{"smiles": "CCOc1cccc(CC(=O)NCc2ccc3c(c2)CCN3C(C)=O)c1OCC", "survival": "inactive: 89%"}
{"smiles": "Cc1ccc2[nH]cc(C(c3ccccc3)c3ccc(C)s3)c2c1", "note": "(stereo unspecified)", "survival": "inactive: 46%"}
{"smiles": "CCC(C)NC(=O)CCc1c(C)nc2c(c(C)nn2-c2ccc(C)cc2)c1C", "note": "(stereo unspecified)", "survival": "inactive: 102%"}
{"smiles": "CCN(c1ccc(Cl)cc1)S(=O)(=O)c1nnc(NC(=O)c2ccccc2C)s1", "survival": "inactive: 18%"}
{"smiles": "O=C(NCCCc1nc2ccccc2n1Cc1ccccc1Cl)c1ccco1", "survival": "inactive: 95%"}
{"smiles": "CC(=O)Nc1nonc1-c1nc2ccccc2n1Cc1ccc(Cl)cc1Cl", "survival": "inactive: 100%"}
{"smiles": "CC(CNC(=O)C1CCN(C(=O)N2CCOc3ccc(Cl)cc32)CC1)c1ccccc1", "note": "(stereo unspecified)", "survival": "inactive: 80%"}
